Publication PMC12136788
Some of the results follow.

B1: chr20:23354638:23354749:+|3pUTR|ENSG00000132661|unk|total|mutant (ssRNA)
RNA: GGGAGUUCUACAGUCCGACGAUCAAGUUCCCGGAGUCCCUUUCCUGAAUAUAUACUUGUUUGUCACCGUUUCCUUUUCAAAGCCGUAAACUUUUCUAUUUUUCUACUUGCCCAGCCGAGACUCUGAUUCUGGAAAUUCUGACACAACAGAGGAUUGAGCAUCA
B2: chr17:59694590:59694691:+|3pUTR|ENSG00000141367|msi1|total|mutant (ssRNA)
RNA: GGGAGUUCUACAGUCCGACGAUCCUUGUGUGUGUUUACUAACCCUUCCCUGAGGUUUGUGUAUGUUGGAUAUUGUGGUGUUUCCGAUCACUGAGUGUACAGAAGAGAGAAAUUCAAACAAAAUAUUGCUGUUCUUCAGUUUUGCAACAGAGGAUUGAGCAUCA
B3: chr1:228098371:228098472:+|3pUTR|ENSG00000143761|msi1_unk|FALSE|overlapping (ssRNA)
RNA: GGGAGUUCUACAGUCCGACGAUCUGUGUUGAAAUCCAUUUUGGUGGUUGGUUUUUAACCCAAACUCAGUGCAUUUUUUAAAAUAGUUAAGAAUCCAAGUCGAGAACACUUGAACACACAGAAGGGAGACCCCGCCUAGCAUAGCAACAGAGGAUUGAGCAUCA
B4: ENSG00000198589:be:win_3551|CDS|ENSG00000198589|bound_else_gene|NA|bound_elsewhere_windowed (ssRNA)
RNA: GGGAGUUCUACAGUCCGACGAUCCAUCAGGGUCUUCAGCUAUGUCACCAGAAACUACUGUUUCCCAAAUAGCUGUAGAAUCAGACCUUGGUCAGAUGCUGGAGGAAGGGAAGAAAGCAACUAACCUCACUAGAGAAACCAAAUCAACAGAGGAUUGAGCAUCA
B5: chr11:118396625:118396726:+|3pUTR|ENSG00000110344|msi1|FALSE|bound_elsewhere (ssRNA)
RNA: GGGAGUUCUACAGUCCGACGAUCAACUUGACAAUGCUCCCCUGGCUUGCAGGAAAUUAUACUUAUUAUAGCAUCACCAAGUUUAGAAAUCAUCACUAAUUUUCACCCUCUGUUGUCUCUUCAUAUUCUUCUUCCUUUUCCUAACAACAGAGGAUUGAGCAUCA
B6: chr5:133076644:133076819:+|CDS|ENSG00000170606|unk|FALSE|unique (ssRNA)
RNA: GGGAGUUCUACAGUCCGACGAUCAAAAUUUGAUGAAGUGUUAGUAAAUCACUUCUGUGAAGAAUUUGGGAAGAAAUACAAGCUAGACAUUAAGUCCAAAAUCCGUGCAUUAUUACGACUCUCUCAGGAGUGUGAGAAACUCAACAACAGAGGAUUGAGCAUCA
B7: ENSG00000107863:be:win_4251|CDS|ENSG00000107863|bound_else_gene|NA|bound_elsewhere_windowed (ssRNA)
RNA: GGGAGUUCUACAGUCCGACGAUCUAGUCGCAAGAGGAAGAAGCCGAAAGAAAAAGCACAGCCUAGCAGCUCAGAAGAUGAACUGGACAAUGUAUUUUUUAAGAAAGAAAAUGUGGAACAGUGUCACAAUGAUACUAAAGAGGACAACAGAGGAUUGAGCAUCA
B8: chr10:73479331:73479449:-|CDS|ENSG00000107758|unk|total|mutant (ssRNA)
RNA: GGGAGUUCUACAGUCCGACGAUCGUUGAUGUUCUGAAGAACCACUUGGUGAAAGAAGGUCGAGCCGAUGAAGAAAUUGCGCUCCGAAUUAUCAAUGAGGGUGCUGCCAUCCUUCGGAGAGAGAAAACCAUGACCGAAGCCGAACAACAGAGGAUUGAGCAUCA
B9: chr17:76725537:76725647:-|CDS|ENSG00000070495|unk|FALSE|unique (ssRNA)
RNA: GGGAGUUCUACAGUCCGACGAUCUACUCAGUGAAGAUGAAGAUGAAAUACUACAUCGAGUACAUGGAGAGCACUCGAGAUGAUAGUCCCCUUUACAUCUUUGACAGCAGCUAUGGUGAACACCCUAAAAGAAGGAAACUUUUGCAACAGAGGAUUGAGCAUCA
B10: chr20:45293444:45293825:-|three_prime_utr|ENSG00000124159|control|control|control (ssRNA)
RNA: GGGAGUUCUACAGUCCGACGAUCCGGGGCGGAGGCGCUGGCGGGCUUCCGGCAUUGAGCUGAGUUGGCCUCGCCCGGACCAUUAGGCGGACUGCGGCGUCAGGGGGAUAGCGGGUGGUGAGGGAAGGGGCACGUGCUAGACCGCAACAGAGGAUUGAGCAUCA
B11: chr4:99204923:99205063:-|CDS|ENSG00000172955|control|control|control (ssRNA)
RNA: GGGAGUUCUACAGUCCGACGAUCGAAGAGCAGACAGCACAUCCCUAAACUGGUUGCUGAUUAUAUGGCAGAGAAGUUGAAUCUAGAUCCACUAAUUACUCAUACUCUGAAUCUUGAUAAAAUCAAUGAAGCAGUUGAAUUAAUCAACAGAGGAUUGAGCAUCA
B12: chr10:110602053:110602155:+|CDS|ENSG00000108055|unk|total|mutant (ssRNA)
RNA: GGGAGUUCUACAGUCCGACGAUCCAGUUUGUAAAUUUCUCCGAGCAGAAAGAAAAGUUAAUAAAGCGUCAAGAAGAGUCCGACCGGGGUUACAAAUCAAUCAUGGAACUGAUGAAUGUACUUGAACUUCGGAAAUAUGAAGCUCAACAGAGGAUUGAGCAUCA
B13: chr17:41822664:41822765:+|3pUTR|ENSG00000141756|msi1|FALSE|unique (ssRNA)
RNA: GGGAGUUCUACAGUCCGACGAUCUUCCUUAAAAUGUUUGGAUUUGCAAAGCCAAUUUGGGGCCUGUGGAGCCUGGGGUUGGAUAGGGCCAUGGCUGGUCCCCCACCAUACCUCCCCUCCACAUCACUGACACAGCUGAGCUUGCAACAGAGGAUUGAGCAUCA
B14: chr22:41636480:41636706:+|CDS|ENSG00000196419|unk|FALSE|unique (ssRNA)
RNA: GGGAGUUCUACAGUCCGACGAUCAUGGGCCACGGAUCUGACUACUCACUCAGUGAAGUGCUGUGGGUCUGUGCCAACCUCUUUAGUGAUGUCCAAUUCAAGAUGAGUCAUAAGAGGAUCAUGCUGUUCACCAAUGAAGACAACCAACAGAGGAUUGAGCAUCA

Target: MSI1 full-length (mouse, UniProt Q61474 1-362)
UniProt Q61474, sequence (Q61474 whole entry): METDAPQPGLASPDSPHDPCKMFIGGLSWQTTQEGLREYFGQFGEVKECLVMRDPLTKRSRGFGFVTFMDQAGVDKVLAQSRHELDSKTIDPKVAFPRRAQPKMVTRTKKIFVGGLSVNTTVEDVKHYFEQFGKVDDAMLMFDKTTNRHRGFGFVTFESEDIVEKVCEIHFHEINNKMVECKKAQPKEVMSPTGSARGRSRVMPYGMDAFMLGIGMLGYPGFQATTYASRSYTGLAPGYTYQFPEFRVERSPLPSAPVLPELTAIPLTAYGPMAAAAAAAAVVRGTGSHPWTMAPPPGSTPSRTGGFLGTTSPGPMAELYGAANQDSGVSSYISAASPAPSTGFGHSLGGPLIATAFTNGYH
Assay: nsRBNS (natural sequence RNA bind-n-seq); RBNS binding buffer (assumed for nsRBNS): 25 mM Tris pH 7.5, 150 mM KCl, 3 mM MgCl2, 0.01% Triton X-100, 500 ug/ml BSA, 20 U/ml SUPERase-In, 4 C; UNK is unkempt and MSI1 is Musashi-1; names of the RNAs are library labels; protein concentration not given here; high values mean tight binding

Binder	binding signal [enrichment R]
B1	0.531
B2	0.459
B3	2.15
B4	0.347
B5	7.88
B6	1.47
B7	0.561
B8	0.479
B9	0.324
B10	0.527
B11	0.405
B12	0.336
B13	0.452
B14	0.384
